Data taken from patent publication US20250011380A1 (published 2025).

T1: IL2Rαβγ on CTLL2 cells
T1 sequence (P01590 whole entry, species assumed, looked up): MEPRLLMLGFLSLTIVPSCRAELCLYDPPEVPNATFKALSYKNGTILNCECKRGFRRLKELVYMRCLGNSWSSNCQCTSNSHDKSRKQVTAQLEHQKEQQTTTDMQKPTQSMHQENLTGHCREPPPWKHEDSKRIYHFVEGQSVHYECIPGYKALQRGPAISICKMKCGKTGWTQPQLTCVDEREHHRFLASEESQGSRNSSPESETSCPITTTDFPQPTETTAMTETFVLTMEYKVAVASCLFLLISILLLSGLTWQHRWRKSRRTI
T1 sequence (P16297 whole entry, species assumed, looked up): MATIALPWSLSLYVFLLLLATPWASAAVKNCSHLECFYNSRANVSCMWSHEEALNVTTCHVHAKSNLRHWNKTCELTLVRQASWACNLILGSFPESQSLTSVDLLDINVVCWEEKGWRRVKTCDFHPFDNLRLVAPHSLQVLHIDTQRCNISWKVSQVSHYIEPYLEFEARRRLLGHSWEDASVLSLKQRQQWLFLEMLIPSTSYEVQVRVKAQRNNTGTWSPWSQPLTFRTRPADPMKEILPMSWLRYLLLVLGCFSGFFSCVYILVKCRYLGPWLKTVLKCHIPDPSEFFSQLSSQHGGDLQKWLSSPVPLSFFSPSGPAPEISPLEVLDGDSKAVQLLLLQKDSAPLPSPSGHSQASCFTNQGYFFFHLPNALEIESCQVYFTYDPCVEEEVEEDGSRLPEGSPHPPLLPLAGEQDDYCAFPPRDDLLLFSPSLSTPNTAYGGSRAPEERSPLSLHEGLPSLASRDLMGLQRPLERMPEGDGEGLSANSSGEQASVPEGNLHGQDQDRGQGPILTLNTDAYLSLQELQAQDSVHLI
T1 sequence (P34902 whole entry, species assumed, looked up): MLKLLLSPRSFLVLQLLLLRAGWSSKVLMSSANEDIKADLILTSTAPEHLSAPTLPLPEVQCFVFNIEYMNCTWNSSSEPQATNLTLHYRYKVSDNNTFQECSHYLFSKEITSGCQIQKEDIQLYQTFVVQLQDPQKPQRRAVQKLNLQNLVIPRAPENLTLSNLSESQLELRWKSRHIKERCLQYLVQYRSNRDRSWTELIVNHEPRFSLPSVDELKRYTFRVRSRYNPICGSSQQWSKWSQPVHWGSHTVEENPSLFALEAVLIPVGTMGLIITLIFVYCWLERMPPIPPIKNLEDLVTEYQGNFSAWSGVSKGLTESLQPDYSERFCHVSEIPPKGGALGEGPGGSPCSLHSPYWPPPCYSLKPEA

T2: human CD16b expressed on CHO cells (human, UniProt O75015 17-200)
T2 construct: CHO cells transfected with human CD16b in a pMC plasmid; also called CHO cells expressing human CD16b
T2 chain: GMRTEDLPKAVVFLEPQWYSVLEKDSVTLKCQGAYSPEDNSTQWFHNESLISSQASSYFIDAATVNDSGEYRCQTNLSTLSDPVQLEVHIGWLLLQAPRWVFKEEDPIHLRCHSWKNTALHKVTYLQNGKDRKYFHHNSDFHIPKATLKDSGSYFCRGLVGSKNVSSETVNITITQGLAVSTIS

B1: IL-7/TF/IL-15:TGFβ Receptor II/IL-15RαSu protein complex (other)
chain 1: not shown
chain 2: IPPHVQKSVNNDMIVTDNNGAVKFPQLCKFCDVRFSTCDNQKSCMSNCSITSICEKPQEVCVAVWRKNDENITLETVCHDPKLPYHDFILEDAASPKCIMKEKKKPGETFFMCSCSSDECNDNIIFSEEYNTSNPDGGGGSGGGGSGGGGSIPPHVQKSVNNDMIVTDNNGAVKFPQLCKFCDVRFSTCDNQKSCMSNCSITSICEKPQEVCVAVWRKNDENITLETVCHDPKLPYHDFILEDAASPKCIMKEKKKPGETFFMCSCSSDECNDNIIFSEEYNTSNPDITCPPPMSVEHADIWVKSYSLYSRERYICNSGFKRKAGTSSLTECVLNKATNVAHWTTPSLKCIR
B2: TGFR/IL15RαSu-TGFR/TF/IL-15D8N protein complex (other)
chain 1: IPPHVQKSVNNDMIVTDNNGAVKFPQLCKFCDVRFSTCDNQKSCMSNCSITSICEKPQEVCVAVWRKNDENITLETVCHDPKLPYHDFILEDAASPKCIMKEKKKPGETFFMCSCSSDECNDNIIFSEEYNTSNPDGGGGSGGGGSGGGGSIPPHVQKSVNNDMIVTDNNGAVKFPQLCKFCDVRFSTCDNQKSCMSNCSITSICEKPQEVCVAVWRKNDENITLETVCHDPKLPYHDFILEDAASPKCIMKEKKKPGETFFMCSCSSDECNDNIIFSEEYNTSNPDSGTTNTVAAYNLTWKSTNFKTILEWEPKPVNQVYTVQISTKSGDWKSKCFYTTDTECDLTDEIVKDVKQTYLARVFSYPAGNVESTGSAGEPLYENSPEFTPYLETNLGQPTIQSFEQVGTKVNVTVEDERTLVRRNNTFLSLRDVFGKDLIYTLYYWKSSSSGKKTAKTNTNEFLIDVDKGENYCFSVQAVIPSRTVNRKSTDSPVECMGQEKGEFRE[… about 120 residues with changes …]
chain 2: IPPHVQKSVNNDMIVTDNNGAVKFPQLCKFCDVRFSTCDNQKSCMSNCSITSICEKPQEVCVAVWRKNDENITLETVCHDPKLPYHDFILEDAASPKCIMKEKKKPGETFFMCSCSSDECNDNIIFSEEYNTSNPDGGGGSGGGGSGGGGSIPPHVQKSVNNDMIVTDNNGAVKFPQLCKFCDVRFSTCDNQKSCMSNCSITSICEKPQEVCVAVWRKNDENITLETVCHDPKLPYHDFILEDAASPKCIMKEKKKPGETFFMCSCSSDECNDNIIFSEEYNTSNPDITCPPPMSVEHADIWVKSYSLYSRERYICNSGFKRKAGTSSLTECVLNKATNVAHWTTPSLKCIR
B3: IL-2/TF/IL-2 single-chain chimeric polypeptide (other)
chain: [… about 150 residues …]SGTTNTVAAYNLTWKSTNFKTILEWEPKPVNQVYTVQISTKSGDWKSKCFYTTDTECDLTDEIVKDVKQTYLARVFSYPAGNVESTGSAGEPLYENSPEFTPYLETNLGQPTIQSFEQVGTKVNVTVEDERTLVRRNNTFLSLRDVFGKDLIYTLYYWKSSSSGKKTAKTNTNEFLIDVDKGENYCFSVQAVIPSRTVNRKSTDSPVECMGQEKGEFRE[… about 150 residues …]
B4: IL-15/TF/IL-15 single-chain chimeric polypeptide (other)
chain: [… about 120 residues …]SGTTNTVAAYNLTWKSTNFKTILEWEPKPVNQVYTVQISTKSGDWKSKCFYTTDTECDLTDEIVKDVKQTYLARVFSYPAGNVESTGSAGEPLYENSPEFTPYLETNLGQPTIQSFEQVGTKVNVTVEDERTLVRRNNTFLSLRDVFGKDLIYTLYYWKSSSSGKKTAKTNTNEFLIDVDKGENYCFSVQAVIPSRTVNRKSTDSPVECMGQEKGEFRE[… about 120 residues …]
B5: IL-18/TF/IL-15:IL-12/IL-15RαSu protein complex (other)
chain 1: not shown
chain 2: IWELKKDVYVVELDWYPDAPGEMVVLTCDTPEEDGITWTLDQSSEVLGSGKTLTIQVKEFGDAGQYTCHKGGEVLSHSLLLLHKKEDGIWSTDILKDQKEPKNKTFLRCEAKNYSGRFTCWWLTTISTDLTFSVKSSRGSSDPQGVTCGAATLSAERVRGDNKEYEYSVECQEDSACPAAEESLPIEVMVDAVHKLKYENYTSSFFIRDIIKPDPPKNLQLKPLKNSRQVEVSWEYPDTWSTPHSYFSLTFCVQVQGKSKREKKDRVFTDKTSATVICRKNASISVRAQDRYYSSSWSEWASVPCSGGGGSGGGGSGGGGSRNLPVATPDPGMFPCLHHSQNLLRAVSNMLQKARQTLEFYPCTSEEIDHEDITKDKTSTVEACLPLELTKNESCLNSRETSFITNGSCLASRKTSFMMALCLSSIYEDLKMYQVEFKTMNAKLLMDPKRQIFLDQNMLAVIDELMQALNFNSETVPQKSSLEEPDFYKTKIKLCILLHAFRIRAVTIDRVMSYLNASITCPPPMSVEHADIWVKSYSLYSRERYICNSGFKRKAGTSSLTECVLNKATNVAHWTTPSLKCIR
notes: Two-chain complex secreted from CHO-K1 cells, glycosylated; chains associate through IL-15 and the IL-15Rα sushi domain; also called 18t15-12s
B6: TGFR/TF/IL-15:CD16scFv/IL-15RαSu/IL-21 protein complex (other)
chain 1: IPPHVQKSVNNDMIVTDNNGAVKFPQLCKFCDVRFSTCDNQKSCMSNCSITSICEKPQEVCVAVWRKNDENITLETVCHDPKLPYHDFILEDAASPKCIMKEKKKPGETFFMCSCSSDECNDNIIFSEEYNTSNPDGGGGSGGGGSGGGGSIPPHVQKSVNNDMIVTDNNGAVKFPQLCKFCDVRFSTCDNQKSCMSNCSITSICEKPQEVCVAVWRKNDENITLETVCHDPKLPYHDFILEDAASPKCIMKEKKKPGETFFMCSCSSDECNDNIIFSEEYNTSNPDSGTTNTVAAYNLTWKSTNFKTILEWEPKPVNQVYTVQISTKSGDWKSKCFYTTDTECDLTDEIVKDVKQTYLARVFSYPAGNVESTGSAGEPLYENSPEFTPYLETNLGQPTIQSFEQVGTKVNVTVEDERTLVRRNNTFLSLRDVFGKDLIYTLYYWKSSSSGKKTAKTNTNEFLIDVDKGENYCFSVQAVIPSRTVNRKSTDSPVECMGQEKGEFRE[… about 120 residues …]
chain 2: not shown

How the values were obtained:
TGF-β1 = TGF-β1 (UniProt P01137 fragment); assay: cell-based or functional assay
Chain of TGF-β1 (P01137 279-390 limits assumed): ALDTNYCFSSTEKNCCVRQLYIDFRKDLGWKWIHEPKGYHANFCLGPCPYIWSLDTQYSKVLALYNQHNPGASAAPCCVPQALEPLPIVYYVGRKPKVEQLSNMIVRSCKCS

[1] = target: IL-2Rβ and common γ chain on 32Dβ cells; assay: cell-based or functional assay
IL2Rαβγ on CTLL2 cells = target: T1, IL2Rαβγ on CTLL2 cells; assay: cell-based or functional assay
[2] = target: T2, human CD16b expressed on CHO cells; assay: flow cytometry on CHO cells stably expressing human CD16b; biotinylated anti-human tissue factor and PE conjugated streptavidin

Row | Binder | IC50, HEK-Blue TGFβ reporter cells, 0.1 nM TGFβ1 (TGF-β1) | EC50, 32Dβ cell proliferation (WST1) [1] | other results
1 | B1 | 1.14 nM | 126 nM | 
2 | B2 |  |  | IC50, HEK-Blue TGF-β cells, 0.1 nM TGF-β1 (TGF-β1): 0.0452 nM
3 | B3 |  | 0.158 nM | EC50, CTLL-2 cell proliferation (WST1) (IL2Rαβγ on CTLL2 cells): 0.123 nM
4 | B4 |  | 0.161 nM | 
5 | B5 |  |  | binding result [2]: no binding (tested: 1.2 µg/mL)
6 | B6 | 9.13 nM | 51.3 nM | 
